# This is one part of the list.
# Legend:
# Assay in all cases: glycan array binding signal (z-score within array); higher = stronger binding
# Details in all cases: glycan notation: IUPAC condensed, linker removed
# [1] = target: GalNAc(b1-4)GlcNAc(b1-2)Man
# How it was run: (§1)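 Glycan array binding is given as a within-array Z-score, which can be read as non-binding when negative. The arrays, 3228 of them, came from the Consortium for Functional Glycomics database and were retained only where the protein sequence was available. Z-scores were averaged across arrays of the same protein sequence at different concentrations or buffers and across linkers.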
# [2] = target: GalNAc(b1-4)GlcNAc(b1-2)Man(a1-3)[GalNAc(b1-4)GlcNAc(b1-2)Man(a1-6)]Man(b1-4)GlcNAc(b1-4)GlcNAc
# How it was run: as §1
# [3] = target: GalNAc(b1-4)GlcNAc(b1-3)GalNAc(b1-4)GlcNAc
# How it was run: as §1
# [4] = target: GalNAc(b1-4)GlcNAc6S
# How it was run: as §1
# [5] = target: GalNAc(b1-6)GalNAc
# How it was run: as §1
# [6] = target: GalNAc3S(b1-4)GlcNAc
# How it was run: as §1
# [7] = target: GalNAc3S(b1-4)GlcNAc3S
# How it was run: as §1
# [8] = target: GalNAc3S(b1-4)[Fuc(a1-3)]GlcNAc
# How it was run: as §1
# [9] = target: GalNAc4S6S(b1-4)GlcNAc
# How it was run: as §1
# [10] = target: GalNAc6S(b1-4)GlcNAc
# How it was run: as §1
# [11] = target: Glc(a1-4)Glc
# How it was run: as §1
# [12] = target: Glc(a1-4)Glc(a1-4)Glc(a1-4)Glc
# How it was run: as §1
# [13] = target: Glc(a1-6)Glc(a1-6)Glc
# How it was run: as §1
# [14] = target: Glc(a1-6)Glc(a1-6)Glc(a1-6)Glc
# How it was run: as §1
# [15] = target: Glc(b1-4)Glc
# How it was run: as §1
# [16] = target: Glc(b1-6)Glc
# How it was run: as §1
# [17] = target: GlcA(b1-3)Gal
# How it was run: as §1
# [18] = target: GlcA(b1-3)GlcNAc
# How it was run: as §1
# [19] = target: GlcA(b1-6)Gal
# How it was run: as §1
# [20] = target: GlcA3S(b1-3)Gal(b1-4)GlcNAc(b1-2)Man
# How it was run: as §1
# [21] = target: GlcA3S(b1-3)Gal(b1-4)GlcNAc(b1-3)Gal(b1-4)Glc
# How it was run: as §1
# [22] = target: GlcNAc(a1-3)Gal(b1-4)GlcNAc
# How it was run: as §1
# [23] = target: GlcNAc(a1-4)Gal(b1-3)GlcNAc
# How it was run: as §1
# [24] = target: GlcNAc(a1-4)Gal(b1-4)GalNAc
# How it was run: as §1
# [25] = target: GlcNAc(a1-4)Gal(b1-4)GlcNAc
# How it was run: as §1
# [26] = target: GlcNAc(a1-4)Gal(b1-4)GlcNAc(b1-3)Gal(b1-4)Glc
# How it was run: as §1
# [27] = target: GlcNAc(a1-4)Gal(b1-4)GlcNAc(b1-3)Gal(b1-4)GlcNAc
# How it was run: as §1
# [28] = target: GlcNAc(a1-4)Gal(b1-4)GlcNAc(b1-3)Gal(b1-4)GlcNAc(b1-3)Gal(b1-4)GlcNAc
# How it was run: as §1
# [29] = target: GlcNAc(a1-4)Gal(b1-4)GlcNAc(b1-3)Gal(b1-4)[Fuc(a1-3)]GlcNAc(b1-3)Gal(b1-4)[Fuc(a1-3)]GlcNAc
# How it was run: as §1
# [30] = target: GlcNAc(a1-6)Gal(b1-4)GlcNAc
# How it was run: as §1
# [31] = target: GlcNAc(b1-2)Gal(b1-3)GalNAc
# How it was run: as §1
# [32] = target: GlcNAc(b1-2)Man(a1-3)[GlcNAc(b1-2)Man(a1-6)]Man(b1-4)GlcNAc(b1-4)GlcNAc
# How it was run: as §1
# [33] = target: GlcNAc(b1-2)Man(a1-3)[GlcNAc(b1-2)Man(a1-6)]Man(b1-4)GlcNAc(b1-4)[Fuc(a1-6)]GlcNAc
# How it was run: as §1
# [34] = target: GlcNAc(b1-2)Man(a1-3)[GlcNAc(b1-4)][GlcNAc(b1-2)Man(a1-6)]Man(b1-4)GlcNAc(b1-4)GlcNAc
# How it was run: as §1
# [35] = target: GlcNAc(b1-2)Man(a1-3)[GlcNAc(b1-4)][GlcNAc(b1-2)Man(a1-6)]Man(b1-4)GlcNAc(b1-4)[Fuc(a1-6)]GlcNAc
# How it was run: as §1
# [36] = target: GlcNAc(b1-2)[GlcNAc(b1-4)]Man(a1-3)[GlcNAc(b1-2)Man(a1-6)]Man(b1-4)GlcNAc(b1-4)GlcNAc
# How it was run: as §1
# [37] = target: GlcNAc(b1-2)[GlcNAc(b1-4)]Man(a1-3)[GlcNAc(b1-4)][GlcNAc(b1-2)Man(a1-6)]Man(b1-4)GlcNAc(b1-4)GlcNAc
# How it was run: as §1
binder,measurement,setting,value
B1567 (Bifidobacterium sp) (protein) MKFTTAKKAVALTGAVAMLVSVAACGSDSGKSSQPAQDSDVKEITVWAWEPSLTQVAKDFEKETGIKVDLKNVGTNTKEYTQLDNAIEAGSGAPDVAQVEYYAVPQYAIKGNLLDITDKTSGYKDFYTPGPWASVQFAGKVYGLPMDSGPMAFFYNKEVFDKAGVDAEQIKTWDQYYDAAKKIHALGDNYYITSDTGDAGFFDSMTWLAGAKPFQTSSDGSEVTVNLTEDKGVKTFTDFWQKLLDEGLLDTKTAGWSEDWFKGMVDGTIASLFTGAWMPANLANSAADGAGKWRVTQMPTADGSTTNSENGGSSLAVLASTKKADAAYQFIEYANHGAGVATRVAGGAFPADKASLEKDSFKNATTVKNADGQDVDYFGGQKYNEVLAQAAENVSSGYQFLPFEVKARTIFGDYFGKSYTGDQKLSDGVAAWQKALQDYGKDQGFTVK,glycan array binding signal (z-score),[1],0.004
same,glycan array binding signal (z-score),[2],0.398
same,glycan array binding signal (z-score),[3],-0.104
same,glycan array binding signal (z-score),[4],-0.109
same,glycan array binding signal (z-score),[5],-0.095
same,glycan array binding signal (z-score),[6],-0.096
same,glycan array binding signal (z-score),[7],-0.058
same,glycan array binding signal (z-score),[8],-0.161
same,glycan array binding signal (z-score),[9],-0.099
same,glycan array binding signal (z-score),[10],-0.094
same,glycan array binding signal (z-score),[11],-0.079
same,glycan array binding signal (z-score),[12],-0.046
same,glycan array binding signal (z-score),[13],-0.085
same,glycan array binding signal (z-score),[14],-0.142
same,glycan array binding signal (z-score),[15],-0.133
same,glycan array binding signal (z-score),[16],-0.141
same,glycan array binding signal (z-score),[17],-0.122
same,glycan array binding signal (z-score),[18],-0.129
same,glycan array binding signal (z-score),[19],-0.009
same,glycan array binding signal (z-score),[20],-0.055
same,glycan array binding signal (z-score),[21],-0.104
same,glycan array binding signal (z-score),[22],-0.15
same,glycan array binding signal (z-score),[23],-0.12
same,glycan array binding signal (z-score),[24],-0.101
same,glycan array binding signal (z-score),[25],-0.086
same,glycan array binding signal (z-score),[26],-0.146
same,glycan array binding signal (z-score),[27],-0.112
same,glycan array binding signal (z-score),[28],-0.071
same,glycan array binding signal (z-score),[29],0.042
same,glycan array binding signal (z-score),[30],-0.111
same,glycan array binding signal (z-score),[31],-0.139
same,glycan array binding signal (z-score),[32],-0.105
same,glycan array binding signal (z-score),[33],-0.043
same,glycan array binding signal (z-score),[34],-0.115
same,glycan array binding signal (z-score),[35],-0.137
same,glycan array binding signal (z-score),[36],-0.099
same,glycan array binding signal (z-score),[37],-0.122

# From the supplement of paper PMC8728848
